# According to patent publication US20240101687A1 (ABL BIO, published 2024):
# Tests used:
# [1] = target: T1, human IGF1R extracellular domain, His-tagged (human); experiment: ELISA on coated IGF1R, antibody titrated up to 400 nM; C of the 4-P fit, D 2.42
# T1 construct: Bought (R&D Systems 391-GR or Sino Biological 10164-H08H); also called recombinant IGF1R; ECD of IGF1R
# [2] = target: T1, human IGF1R extracellular domain, …; experiment: ELISA on coated IGF1R, antibody titrated up to 400 nM; C of the 4-P fit
# [3] = target: T1, human IGF1R extracellular domain, …; experiment: ELISA on ECD of IGF1R
# human IGF1R on cells = target: T2, human IGF1R on cells (human); experiment: FACS on MCF-7 cells (2nd Ab only: 2.92)
# T2 construct: also called endogenous IGF1R on the cell surface (MCF-7, JIMT-1, BT474, SKBR3); IGF1R library on OVCAR3 cells
# [4] = target: T3, mouse IGF1R on bEND.3 brain endothelial cells (mouse, UniProt Q60751); experiment: FACS on bEND.3 mouse brain endothelial cells; MFI of secondary Ab only 3.20
# T3 construct: whole, on cells; also called IGF1R expressed on the surface of brain endothelial cells
# monkey IGF1R, His-tagged = monkey IGF1R, His-tagged (monkey); experiment: ELISA, IGF1R coated, anti-human Fab-HRP
# mouse IGF1R, His-tagged = target: T4, mouse IGF1R, His-tagged (mouse, UniProt Q60751, in part); experiment: ELISA, IGF1R coated, anti-human Fab-HRP
# T4 construct: bought
# [5] = target: T1, human IGF1R extracellular domain, …; experiment: ELISA, IGF1R coated, anti-human Fab-HRP
# rat IGF1R, His-tagged = rat IGF1R, His-tagged (rat, UniProt P24062, in part); experiment: ELISA, IGF1R coated, anti-human Fab-HRP
# [6] = target: T1, human IGF1R extracellular domain, …; experiment: ELISA, native human IGF1R ECD
# [7] = target: T1, human IGF1R extracellular domain, …; experiment: ELISA on ECD of IGF1R; remark: listed apart in the source
EC50 [1] [nM],EC50 [2] [nM],EC50 [3] [nM],GEOmean (human IGF1R on cells),MFI [4],"EC50 (monkey IGF1R, His-tagged)","EC50 (mouse IGF1R, His-tagged) [nM]",EC50 [5],"EC50 (rat IGF1R, His-tagged)",EC50 [6] [nM],EC50 [7] [nM],Binder
1.01,0.644,0.49,4.09,4.37,2.48 nM and 2.21 nM,3.02,0.914 nM and 0.379 nM,1.05 nM and 0.874 nM,0.914,,"ch11F11-1564 bivalent (bispecific antibody, human IgG1) heavy: EVQLQESGGGLVQPGGSLRLSCATSGFTFSDFYMEWVRQPPGKRLEWIAASRNKANDYTTEYSASVKGRFIVSRDTSQSILYLQMNALRAEDTAIYYCARDAHGKPFAYWGQGTLVTVSA[human IgG1 constant region not written out]GGGGSGGGGSGGGGSQSVLTQPPSASGTPGQRVTISCTGSSSNIGSNDVSWYQQLPGTAPKLLIYANSNRPSGVPDRFSGSKSGTSASLAISGLRSEDEADYYCGAWDDSLNGYVFGCGTKLTVLGGGGSGGGGSGGGGSGGGGSEVQLLESGGGLVQPGGSLRLSCAASGFTFSSYDMSWVRQAPGKCLEWVSAISYDNGNTYYADSVKGRFTISRDNSKNTLYLQMNSLRAEDTAVYYCAKGVLTTLMNWFDYWGQGTLVTVSS VL: DIVMTQSPSSLAVSVGEKVTMS[about 80 residues not written out]FGGGTKLEIK"
,0.904,,,,,,,,,0.347,"ch11F11-1564 monovalent (bispecific antibody, human IgG1) heavy 1: EVQLQESGGGLVQPGGSLRLSCATSGFTFSDFYMEWVRQPPGKRLEWIAASRNKANDYTTEYSASVKGRFIVSRDTSQSILYLQMNALRAEDTAIYYCARDAHGKPFAYWGQGTLVTVSAASTKGPSVFPLAPSSKSTSGGTAALGCLVKDYFPEPVTVSWNSGALTSGVHTFPAVLQSSGLYSLSSVVTVPSSSLGTQTYICNVNHKPSNTKVDKKV[human IgG1 Fc with changes not written out]GGGGSGGGGSGGGGSQSVLTQPPSASGTPGQRVTISCTGSSSNIGSNDVSWYQQLPGTAPKLLIYANSNRPSGVPDRFSGSKSGTSASLAISGLRSEDEADYYCGAWDDSLNGYVFGCGTKLTVLGGGGSGGGGSGGGGSGGGGSEVQLLESGGGLVQPGGSLRLSCAASGFTFSSYDMSWVRQAPGKCLEWVSAISYDNGNTYYADSVKGRFTISRDNSKNTLYLQMNSLRAEDTAVYYCAKGVLTTLMNWFDYWGQGTLVTVSS heavy 2: EVQLQESGGGLVQPGGSLRLSCATSGFTFSDFYMEWVRQPPGKRLEWIAASRNKANDYTTEYSASVKGRFIVSRDTSQSILYLQMNALRAEDTAIYYCARDAHGKPFAYWGQGTLVTVSA[human IgG1 constant region with changes not written out] VL: DIVMTQSPSSLAVSVGEKVTMS[about 80 residues not written out]FGGGTKLEIK"

# “And” between values parts separate entries of the source, which are not always exact repeats. Identical values can stand only once.
